Source: the supplement of paper PMC4604168 (melanoma cell lines)
Some of the results follow. Single values are uncertain, as repeats are few or missing.

tested on: MZ2-MEL; assay: cell count relative to DMSO control; melanoma cells; higher = more viable cells; settings: library dose: low library concentration; 72 h
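Further: cell number obtained by counting DAPI-stained nuclei in high-throughput microscope images with image analysis software, screen run in 1,536-well plates.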

SMILES	cell count
Nc1ccn([C@@H]2O[C@H](CO)[C@@H](O)C2(F)F)c(=O)n1 [gemcitabine] + O=C1NC(=O)/C(=C/c2ccc(-c3ccc(F)cc3O)o2)S1 [AS252424] (first compound 0.0004 µM, partner dose 1 µM)	93.3%
Nc1ccn([C@@H]2O[C@H](CO)[C@@H](O)C2(F)F)c(=O)n1 [gemcitabine] + CC1(C)NC(=O)N(c2ccc([N+](=O)[O-])c(C(F)(F)F)c2)C1=O [nilutamide] (first compound 0.0004 µM, partner dose 1 µM)	91.7%
Nc1ncn([C@H]2C[C@H](O)[C@@H](CO)O2)c(=O)n1 [decitabine] + NCC(=O)Nc1ccc(-n2nc(C(F)(F)F)cc2-c2ccc3c(ccc4ccccc43)c2)cc1 [OSU03012] (first compound 0.1 µM, partner dose 1 µM)	79.8%
Nc1ccn([C@@H]2O[C@H](CO)[C@@H](O)C2(F)F)c(=O)n1 [gemcitabine] + CC(C)CCN1c2nc(Nc3cc(F)c(O)c(F)c3)ncc2N(C)C(=O)C1C [BID1870] (first compound 0.0004 µM, partner dose 0.2 µM)	95.3%
CC(=O)c1c(C)c2cnc(Nc3ccc(N4CCNCC4)cn3)nc2n(C2CCCC2)c1=O [palbociclib] + COc1cc2c(Oc3ccc4[nH]c(C)cc4c3F)ncnc2cc1OCCCN1CCCC1 [cediranib] (first compound 0.04 µM, partner dose 0.4 µM)	80.8%
Nc1nc(F)nc2c1ncn2[C@@H]1O[C@H](CO)[C@@H](O)[C@@H]1O [fludarabine] + O=C(O)C(=O)Nc1sc2c(c1C(=O)O)CCNC2 [TCS401] (first compound 0.2 µM, partner dose 1.66667 µM)	107%
CC(=O)c1c(C)c2cnc(Nc3ccc(N4CCNCC4)cn3)nc2n(C2CCCC2)c1=O [palbociclib] + Cn1cc(/C=C2\C(=O)Nc3cccnc32)c2ccccc21 [GW441756] (first compound 0.04 µM, partner dose 0.4 µM)	77.1%
Nc1ccn([C@@H]2O[C@H](CO)[C@@H](O)C2(F)F)c(=O)n1 [gemcitabine] + Oc1nc(-c2ccc(C(F)(F)F)cc2)nc2c1CSCC2 [XAV939] (first compound 0.0004 µM, partner dose 2 µM)	92.8%
CC(=O)O[C@@]12CO[C@@H]1C[C@H](O)[C@@]1(C)C(=O)[C@H](O)C3=C(C)[C@@H](OC(=O)[C@H](O)[C@@H](NC(=O)OC(C)(C)C)c4ccccc4)C[C@@](O)([C@@H](OC(=O)c4ccccc4)[C@H]21)C3(C)C [Docetaxel] + Cn1c(=O)n(-c2ccc(C(C)(C)C#N)cc2)c2c3cc(-c4cnc5ccccc5c4)ccc3ncc21 [NVP-BEZ235] (first compound 0.0001 µM, partner dose 0.004 µM)	44.7%
CC(=O)c1c(C)c2cnc(Nc3ccc(N4CCNCC4)cn3)nc2n(C2CCCC2)c1=O [palbociclib] + Cc1cc([N+](=O)[O-])ccc1NS(=O)(=O)c1cc(Cl)ccc1Cl [FH535] (first compound 0.04 µM, partner dose 1 µM)	74.4%
CC(=O)O[C@@]12CO[C@@H]1C[C@H](O)[C@@]1(C)C(=O)[C@H](O)C3=C(C)[C@@H](OC(=O)[C@H](O)[C@@H](NC(=O)OC(C)(C)C)c4ccccc4)C[C@@](O)([C@@H](OC(=O)c4ccccc4)[C@H]21)C3(C)C [Docetaxel] + N#Cc1c(O)c2c(-c3ccc(-c4ccccc4O)cc3)csc2[nH]c1=O [A769662] (first compound 0.0001 µM, partner dose 2 µM)	49.7%
CC(=O)O[C@@]12CO[C@@H]1C[C@H](O)[C@@]1(C)C(=O)[C@H](O)C3=C(C)[C@@H](OC(=O)[C@H](O)[C@@H](NC(=O)OC(C)(C)C)c4ccccc4)C[C@@](O)([C@@H](OC(=O)c4ccccc4)[C@H]21)C3(C)C [Docetaxel] + CN(C)S(=O)(=O)c1ccc2c(c1)/C(=C/c1cc3c([nH]1)CCCC3)C(=O)N2 [SU6656] (first compound 0.0001 µM, partner dose 0.4 µM)	43.9%
Nc1ncn([C@H]2C[C@H](O)[C@@H](CO)O2)c(=O)n1 [decitabine] + CN(NC(=O)CC(=O)NN(C)C(=S)c1ccccc1)C(=S)c1ccccc1 [STA4783] (first compound 0.1 µM, partner dose 0.006 µM)	76.1%
CC(=O)c1c(C)c2cnc(Nc3ccc(N4CCNCC4)cn3)nc2n(C2CCCC2)c1=O [palbociclib] + NCC(=O)Nc1ccc(-n2nc(C(F)(F)F)cc2-c2ccc3c(ccc4ccccc43)c2)cc1 [OSU03012] (first compound 0.04 µM, partner dose 1 µM)	84.6%
CC(=O)O[C@@]12CO[C@@H]1C[C@H](O)[C@@]1(C)C(=O)[C@H](O)C3=C(C)[C@@H](OC(=O)[C@H](O)[C@@H](NC(=O)OC(C)(C)C)c4ccccc4)C[C@@](O)([C@@H](OC(=O)c4ccccc4)[C@H]21)C3(C)C [Docetaxel] + CC(C)CCN1c2nc(Nc3cc(F)c(O)c(F)c3)ncc2N(C)C(=O)C1C [BID1870] (first compound 0.0001 µM, partner dose 0.2 µM)	50.7%
CC(=O)c1c(C)c2cnc(Nc3ccc(N4CCNCC4)cn3)nc2n(C2CCCC2)c1=O [palbociclib] + O=C(CCCCCCC(=O)Nc1ccccc1)NO [vorinostat] (first compound 0.04 µM, partner dose 0.08 µM)	78.1%
CC(=O)c1c(C)c2cnc(Nc3ccc(N4CCNCC4)cn3)nc2n(C2CCCC2)c1=O [palbociclib] + CC1(C)NC(=O)N(c2ccc([N+](=O)[O-])c(C(F)(F)F)c2)C1=O [nilutamide] (first compound 0.04 µM, partner dose 1 µM)	86%
Nc1ncn([C@H]2C[C@H](O)[C@@H](CO)O2)c(=O)n1 [decitabine] + O=C(O)c1ccc(-c2c[nH]c3ncc(-c4ccccc4)cc23)cc1C1CCCC1 [GSK650394] (first compound 0.1 µM, partner dose 0.16 µM)	79.9%
CC(=O)O[C@@]12CO[C@@H]1C[C@H](O)[C@@]1(C)C(=O)[C@H](O)C3=C(C)[C@@H](OC(=O)[C@H](O)[C@@H](NC(=O)OC(C)(C)C)c4ccccc4)C[C@@](O)([C@@H](OC(=O)c4ccccc4)[C@H]21)C3(C)C [Docetaxel] + C=CCn1c(=O)c2cnc(Nc3ccc(N4CCN(C)CC4)cc3)nc2n1-c1cccc(C(C)(C)O)n1 [MK1775] (first compound 0.0001 µM, partner dose 0.02 µM)	44.9%
Nc1nc(F)nc2c1ncn2[C@@H]1O[C@H](CO)[C@@H](O)[C@@H]1O [fludarabine] + Cc1cc([N+](=O)[O-])ccc1NS(=O)(=O)c1cc(Cl)ccc1Cl [FH535] (first compound 0.2 µM, partner dose 1 µM)	99.8%
CC(=O)O[C@@]12CO[C@@H]1C[C@H](O)[C@@]1(C)C(=O)[C@H](O)C3=C(C)[C@@H](OC(=O)[C@H](O)[C@@H](NC(=O)OC(C)(C)C)c4ccccc4)C[C@@](O)([C@@H](OC(=O)c4ccccc4)[C@H]21)C3(C)C [Docetaxel] + O=S(=O)(c1ccccc1)N(CC(F)(F)F)c1ccc(C(O)(C(F)(F)F)C(F)(F)F)cc1 [T0901317] (first compound 0.0001 µM, partner dose 1.4 µM)	48.3%
CC(=O)c1c(C)c2cnc(Nc3ccc(N4CCNCC4)cn3)nc2n(C2CCCC2)c1=O [palbociclib] + CC(C)(C)c1cnc(CSc2cnc(NC(=O)C3CCNCC3)s2)o1 [SNS-032] (first compound 0.04 µM, partner dose 0.01 µM)	79.6%
CC(=O)O[C@@]12CO[C@@H]1C[C@H](O)[C@@]1(C)C(=O)[C@H](O)C3=C(C)[C@@H](OC(=O)[C@H](O)[C@@H](NC(=O)OC(C)(C)C)c4ccccc4)C[C@@](O)([C@@H](OC(=O)c4ccccc4)[C@H]21)C3(C)C [Docetaxel] + CO[C@@H]1[C@H](N(C)C(=O)c2ccccc2)C[C@H]2O[C@]1(C)n1c3ccccc3c3c4c(c5c6ccccc6n2c5c31)C(=O)NC4 [Midostaurin] (first compound 0.0001 µM, partner dose 0.08 µM)	41.2%
Nc1nc(F)nc2c1ncn2[C@@H]1O[C@H](CO)[C@@H](O)[C@@H]1O [fludarabine] + COc1ccc2c(c1)CCC1C2CCC2(C)C(NCCCCCCN3C(=O)C=CC3=O)CCC12 [U73122] (first compound 0.2 µM, partner dose 0.4 µM)	0.965%
CC(=O)c1c(C)c2cnc(Nc3ccc(N4CCNCC4)cn3)nc2n(C2CCCC2)c1=O [palbociclib] + Cn1c(Nc2ccc(C(F)(F)F)cc2)nc2cc(Oc3ccnc(-c4ncc(C(F)(F)F)[nH]4)c3)ccc21 [CHIR265] (first compound 0.04 µM, partner dose 0.08 µM)	64.6%
Nc1ccn([C@@H]2O[C@H](CO)[C@@H](O)C2(F)F)c(=O)n1 [gemcitabine] + O=c1cc(-c2cccc3c2Sc2ccccc2S3)oc(N2CCOCC2)c1 [KU55933] (first compound 0.0004 µM, partner dose 1 µM)	109%
